ChEMBL document CHEMBL1201862, “PubChem BioAssay data set” (2004)
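Following 48 hours of exposure in 96-well plates, responses at five concentrations were used to interpolate endpoints linearly. GI50 = concentration required for 50% inhibition of growth.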 Calls of active or inactive are those of the source. Cut-off read from the data, not from the text of the source: active = GI50 up to about 1.1 µM and inactive = higher. Bridge positions count the residues as written; N and C are the ends. Peptide text beside a SMILES is read from it. * marks the point of attachment. Cbz = O=C(OCc1ccccc1)*

tested on: NCI-H322M; experiment: NCI tumour cell line growth inhibition, 48 h

Row | SMILES | GI50
1 | O=C1c2ccccc2C(=O)c2c(NC3CCCCC3)ccc(Nc3ccc(S(=O)(=O)O)cc3)c21 | inactive: 63.2 µM
2 | CCSc1n/c(=C\c2ccc(N(C)C)cc2)c2nnnn12 | inactive: > 100 µM
3 | Cc1nc(-n2nc(-c3ccccc3)cc2-c2ccccc2)sc1C(=O)/C=C/c1ccc(Cl)c(Cl)c1 | inactive: 19.5 µM
4 | CNC(=O)/C(=C/c1ccc(OC)cc1)c1cc(OC)c(OC)c(OC)c1 | inactive: 3.23 µM
5 | c1csc(-c2ccsc2-c2ccsc2)c1 | inactive: > 100 µM
6 | COc1cc2cc[n+]3c(C)c4cc(OC)c(OC)cc4c([O-])c3c2cc1OC | inactive: > 100 µM
7 | C=C1C(=O)O[C@H]2[C@H]3O[C@@H](C[C@@H]12)[C@](C)(O)CCCC(C)=CCC[C@H]3C | inactive: 19.6 µM
8 | Cc1nn(C(=O)c2ccccc2O)c2c1C(c1ccc(O)cc1O)SC(=N)N2 (stereo not given) | inactive: 5.93 µM
9 | Cc1ccc(-c2cc(N)n(-c3nc4c([nH]3)c(=O)n(C)c(=O)n4C)n2)cc1 | inactive: 4.04 µM
10 | O=C(c1nc2ccc(Cl)cc2nc1O)C(O)c1ccc2c(c1)OCO2 (stereo not given) | inactive: > 100 µM
11 | CCCCCCCCCCCCCCCCOC(=O)C(C(=O)OCCCCCCCCCCCCCCCC)[N+](C)(C)CCOC(C)=O | inactive: 15.6 µM
12 | N#CC1=C(N)OC2=C(CCCc3ccc([N+](=O)[O-])cc32)C1c1ccccc1 (stereo not given) | inactive: 6.67 µM
13 | Cc1cc(S(=O)(=O)Nc2nc(N)n[nH]2)c(S)cc1Cl | inactive: > 10 µM
14 | CC(/C=N/N(C)C1=NCCCN1)=N/N(C)C1=NCCCN1 | inactive: > 100 µM
15 | N#C/C(=C1\SC(/N=N/c2ccccc2)C(=O)N1c1ccccc1)c1nc2ccccc2[nH]1 (stereo not given) | inactive: > 100 µM
16 | CC(O)CNC1=CC(=O)C(=O)c2ccccc21 (stereo not given) | inactive: 16.9 µM
17 | Cn1c2c(c3ccccc31)C1C(=O)N(c3ccccc3)C(=O)C1CC2 (stereo not given) | inactive: > 303 µM
18 | FC(F)(Sc1ncccn1)c1nc2ccccc2o1 | inactive: > 100 µM

Row | SMILES | GI50
19 | C(=C\c1cccc(/C=C/c2ccccn2)n1)/c1ccccn1 | inactive: > 100 µM
20 | COc1cc(CO)c(CC(=O)NCCCc2ccccc2)cc1OC | inactive: > 100 µM
21 | N#CC(c1ccccc1)(c1ccccc1)[C@@H](c1ccccc1)[C@H](Cc1ccccc1)NS(=O)(=O)c1ccccc1 | inactive: > 100 µM
22 | N#CC1C(=O)N(c2ccccc2)NC12OC(=O)c1ccncc12 (stereo not given) | inactive: > 20 µM
23 | COC(=O)C1CCCCNC(=O)CCC(NC(=O)OCc2ccccc2)C(=O)N1 (stereo not drawn) (Cbz-Glu-Lys-OMe; lactam 1-2; configuration not given here) | inactive: > 100 µM
24 | O=C(O)c1ccccc1.[Ag] | inactive: 44 µM
25 | Cc1cc(S(=O)(=O)O)c(NC(=O)C(=O)C2C=CCS2(=O)=O)cc1Cl (stereo not given) | inactive: > 100 µM
26 | O=C(CCc1n[nH]c(=S)o1)Nc1cc(Cl)c(Cl)cc1Cl | inactive: 55.7 µM
27 | CC1(C)CC(=O)c2c(nc3ccc4ccccc4c3c2-c2ccc(NC(=O)CCCC(=O)Nc3ccc(-c4c5c(nc6ccc7ccccc7c46)CC(C)(C)CC5=O)cc3)cc2)C1 | inactive: > 100 µM
28 | Cn1c(COC(=O)NC2CCCCC2)c(COC(=O)NC2CCCCC2)c2ccc3ccccc3c21 | inactive: 87.3 µM
29 | [N-]=[N+]=NC1(N=[N+]=[N-])C(=O)NN=C(c2ccccc2)C1=O (stereo not given) | inactive: > 100 µM
30 | Cc1ccc2c(c1)c1ccc3c(c1n2C)C(=O)C=CC3=O | inactive: > 10 µM
31 | CCOC(=O)C1=C(Nc2ccc(Cl)c(Cl)c2)OC/C1=N\NS(=O)(=O)c1ccc(C)cc1 | inactive: 46 µM
32 | O=C(NC(Cl)(C(F)(F)F)C(F)(F)F)c1ccc(F)cc1 | inactive: > 100 µM
33 | CCOP(=O)(OCC)C1=NC=CC=CC1n1c(-c2ccccc2)nn(CC)c1=O (stereo not given) | inactive: > 100 µM
34 | CCC/C(Cl)=N\OC(=O)Nc1ccc(OC(F)(F)F)cc1 | inactive: 20.1 µM
35 | CCN(CC)C(=S)N/N=C1\C(=O)Nc2ccccc21 | active: 0.897 µM
